According to paper PMC4336329 (PLoS ONE, 2015):
About 2,200 (0.71%) of roughly 310,000 compounds showed an effect of 50% or more. Effects have a minus sign here. The list shows a part of the results.

Each molecule was assayed against human ether-à-go-go-related gene (hERG) potassium channel (human, UniProt Q12809) (assay: primary screen, population patch clamp on CHO cells stably expressing hERG).
human ether-à-go-go-related gene (hERG) potassium channel, sequence (Q12809 whole entry, looked up): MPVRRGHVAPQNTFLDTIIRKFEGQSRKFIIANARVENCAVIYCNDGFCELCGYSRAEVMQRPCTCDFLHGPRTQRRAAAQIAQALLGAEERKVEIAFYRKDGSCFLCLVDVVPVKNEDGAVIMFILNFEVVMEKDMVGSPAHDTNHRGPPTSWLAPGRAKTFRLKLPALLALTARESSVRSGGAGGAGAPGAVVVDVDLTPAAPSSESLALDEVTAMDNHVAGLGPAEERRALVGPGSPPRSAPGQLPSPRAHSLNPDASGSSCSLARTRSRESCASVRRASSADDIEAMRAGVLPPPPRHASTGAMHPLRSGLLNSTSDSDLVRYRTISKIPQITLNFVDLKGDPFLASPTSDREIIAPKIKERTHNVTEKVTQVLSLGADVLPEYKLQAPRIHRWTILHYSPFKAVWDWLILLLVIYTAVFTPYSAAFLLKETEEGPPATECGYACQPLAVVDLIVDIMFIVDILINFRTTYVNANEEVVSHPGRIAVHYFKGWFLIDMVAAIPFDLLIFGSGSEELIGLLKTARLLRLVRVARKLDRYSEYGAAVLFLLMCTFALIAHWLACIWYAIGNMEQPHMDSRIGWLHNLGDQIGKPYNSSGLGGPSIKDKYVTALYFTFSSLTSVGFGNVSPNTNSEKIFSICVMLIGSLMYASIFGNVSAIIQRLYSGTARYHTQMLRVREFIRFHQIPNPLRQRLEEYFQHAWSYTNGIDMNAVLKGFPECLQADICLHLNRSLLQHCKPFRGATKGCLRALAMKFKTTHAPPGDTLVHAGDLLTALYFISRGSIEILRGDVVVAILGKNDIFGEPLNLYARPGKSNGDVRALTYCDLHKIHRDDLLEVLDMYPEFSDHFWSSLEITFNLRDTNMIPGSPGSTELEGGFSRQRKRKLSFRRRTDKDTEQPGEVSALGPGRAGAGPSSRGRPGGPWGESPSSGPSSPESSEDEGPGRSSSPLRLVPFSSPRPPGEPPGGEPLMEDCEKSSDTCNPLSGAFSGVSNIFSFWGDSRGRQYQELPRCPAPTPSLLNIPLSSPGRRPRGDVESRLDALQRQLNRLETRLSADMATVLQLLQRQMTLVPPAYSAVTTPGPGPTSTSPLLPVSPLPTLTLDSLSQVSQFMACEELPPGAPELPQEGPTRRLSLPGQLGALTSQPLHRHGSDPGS

SMILES	hERG current change (%, negative = inhibition) at 1uM
COc1ccccc1C(=O)N/C(=C/c1ccc(Br)cc1)C(=O)N1CCCC1	9.34%
COc1nc(N)nc(CC(=O)C2CC2)n1	7.85%
CCCC(C)c1nnc(NC(=O)COc2ccc3c(c2)OCO3)s1 (centres unmarked)	12.4%
O=C(O)c1ccc(/C=N/n2c(C3CCCCC3)n[nH]c2=S)cc1	14.1%
Cc1cc(C)n(C(=O)CNc2ccccc2Cl)n1	15.7%
Cc1cc(NC(=O)/C=C/c2ccco2)ccc1NC(=O)c1ccccc1	10.7%
Cc1nn(C)c(Oc2cccc(C(F)(F)F)c2)c1C#N	4.96%
Cn1nnnc1SCc1cc(=O)n2ccsc2n1	8.39%
CCc1ccc(NC(=O)C(=O)N/N=C(\C)CC(=O)NCCOC)cc1	6.64%
CCOP(=O)(OCC)c1nc(-c2cccc3ccccc23)oc1NCc1ccccc1	9.28%
CCNC(=O)COC(=O)c1cc(C)nc2ccccc12	5.55%
Cn1c(=O)cc(Nc2ccccc2)c2c(=O)n(-c3ccccc3)c(=O)n(-c3ccccc3)c21	9.57%
CC(=O)c1cc(C#N)c(Oc2ccc(F)cc2)nc1C	13%
COc1cccc(NC(=O)COC(=O)Cc2ccc(Cl)cc2)c1	14.5%
Cc1nn(C)cc1/C=N\NC(=O)c1csc2c1CCCC2	1.17%
COC(=O)c1c(NC(=O)C2=COCCO2)sc(C)c1C	8.77%
O=C(CN1CCN(C(=O)c2ccccc2)CC1)Nc1ncc(Br)cc1Br	-84.9%
CC1(C)CC(=O)C(N=Nc2c(Cl)cc(Cl)cc2Cl)=C(O)C1	16.3%
O=c1c(-c2nnc(SCc3ccc(Cl)cc3Cl)o2)cccn1Cc1ccccc1	1.05%
O=C(CC(=O)NN=C1CCCC1)NCCc1ccccc1	1.75%

SMILES	hERG current change (%, negative = inhibition) at 1uM
Cc1cc(N)n2nc(C)c(-c3ccc(Cl)cc3)c2n1	8.12%
COc1cc(CNCCc2ccccc2)ccc1OCC(N)=O.Cl	1.92%
O=C(Nc1ccc(-c2nc3cccnc3s2)cc1)C1CCCO1 (centres unmarked)	8.87%
O=C1c2ccccc2C(=O)N1CCc1nc2ccccc2c(=O)n1-c1ccccn1	14.1%
Cc1cc(Cl)ccc1Oc1nc(-c2ccccc2)ncc1S(C)(=O)=O	8.04%
CNC(=O)C1CCN(S(=O)(=O)c2c(C)noc2/C=C/N(C)C)CC1	-0.512%
C=CCn1c(O)c(C(C)=Nc2ccc(C(=O)OCC)cc2)c(=O)[nH]c1=O	-1.64%
COc1cc(C(=O)Sc2ccc(C)cc2)cc(OC)c1OC	4.96%
O=C(c1cnsn1)N1CCC(CO)(Cc2cccc(F)c2)CC1	16.1%
CCCCNS(=O)(=O)c1ccc2nc(-c3cccnc3)cc(C(=O)NC3CCCC3)c2c1	7.8%
CC(C)CN1C(=O)c2ccc(C(=O)NCc3ccccn3)cc2C1=O	6.44%
O=C(c1ccc(Br)o1)N1CCN(c2ccccn2)CC1	0.932%
Cc1ccc(OCc2ccc(C(=O)N3CCOCC3)cc2)cc1C	9.53%
O=C(CCC(=O)Nc1ccccc1)NNC(=O)c1cccs1	13.5%
O=C(O)C1C2c3ccccc3C(c3ccccc32)C1C(=O)Nc1ccccc1 (centres unmarked)	11.8%
Cc1nn(C)c(C)c1NC(=O)CSc1nc(C2CC2)nc2c1cnn2-c1ccccc1	4.22%
O=C(Cn1ccnc1)c1ccc(O)c(O)c1	14.5%
CSc1ccccc1NC(=O)c1ccccc1C	9.76%
O=C(CCc1ccc(S(=O)(=O)N2CCOCC2)cc1)N1CCCC1	2.89%
COc1cccc(OCCNc2ccc([N+](=O)[O-])cn2)c1	-1.47%

SMILES	hERG current change (%, negative = inhibition) at 1uM
Cc1onc(-c2c(Cl)cccc2Cl)c1/C(N)=N/OC(=O)N(C)C	9.36%
O=C(CSc1ncccc1C(=O)O)c1ccc2ccccc2c1	4.69%
CC(=O)Nc1ccc(S(=O)(=O)NCCCN2CCOCC2)cc1	9.38%
C=CCNC(=O)C1CCC(C(=O)NCC=C)CC1 (centres unmarked)	6.42%
Fc1ccc(CSc2nnc(-c3ccco3)o2)cc1	15.7%
N/C(=N\OC(=O)CSc1ccccc1)c1cccc([N+](=O)[O-])c1	-1.28%
O=C(Nc1nnc(SCC(=O)N2CCCc3ccccc32)s1)c1ccc2ccccc2c1	6.91%
COC(=O)c1cc(Br)c(=O)n(-c2cc(C)on2)c1	14.4%
CCCCN(CC)CCCNC(=O)CC1Nc2ccccc2NC1=O (centres unmarked)	10.2%
CCOC(=O)Cn1nc(-c2ccccc2)c2ccccc2c1=O	7.25%
CCCCn1c(N)c(N(CC(C)C)C(=O)c2cc(C)nc3ccccc23)c(=O)[nH]c1=O	6.52%
O=C(CCC(=O)N1CCN(Cc2ccc(F)cc2)CC1)Nc1nnc(C2CCCCC2)s1	14.1%
Cc1ccc(CNC(=O)C(Cc2ccccc2)NS(=O)(=O)c2ccc3c(c2)CCC(=O)N3)cc1 (centres unmarked)	-2.53%
CC(C)CCn1c(=O)c2c(nc3n2CCCN3Cc2ccccc2)n(C)c1=O	-10.9%
CC(CCc1ccccc1)NC(=O)COC(=O)c1cc(NS(=O)(=O)c2ccc(Cl)c([N+](=O)[O-])c2)ccc1O (centres unmarked)	14.1%
CC(=O)c1cc(C#N)c(SCC(=O)O)nc1C	0.462%
Cc1ccc(OCCCN2C(=O)C(=O)c3cccc(C)c32)cc1	13.2%
CCN(CCn1cccn1)C(=O)CCc1nnc(CCc2ccccc2OC)o1	-5.16%
Cc1ccccc1NC(=S)N(C)Cc1cccs1	-4.48%
